Test results: the supplement of paper PMC6135742
Values joined by “and” are separate entries in the source; they are usually repeats but may differ in a detail not shown here. Equal entries are not always repeated. Structures can show the parent of a compound that is named as a salt. ± gives the standard deviation of the averaged measurements. Whole data set: some 2,600 compounds, median “total cell number (DAPI+ nuclei) relative to DMSO vehicle control” near -1.4, cut for the lowest 2% near -23. The list shows a part of the results.

These compounds were tested on jimpy (Plp1 jimpy) mouse iPSC-derived oligodendrocyte progenitor cells (assay: total cell number (DAPI+ nuclei) relative to DMSO vehicle control (SDs above negative control mean); higher = more surviving cells). Settings: 10 µM; 3 days.
For `CC1(C)S[C@@H]2[C@H](NC(=O)C(C(=O)O)c3ccccc3)C(=O)N2[C@H]1C(=O)O` (stereo partly drawn) [Carbenicillin disodium], the total cell number was 0.323. `NC(=O)N1C(=O)/C(=C(\O)c2cccs2)c2cc(Cl)ccc21` [Tenidap] was tested, and the total cell number was -1.49. For `CC(C)(C)C(=O)C(Oc1ccc(Cl)cc1)n1ccnc1` (stereo not drawn) [Climbazole], the total cell number was 12.8. With `CC(C)N(CCCNC(=O)Nc1ccc(C(C)(C)C)cc1)C[C@H]1O[C@@H](n2cc(Br)c3c(N)ncnc32)[C@H](O)[C@@H]1O` the total cell number was -7.77. In the case of `COc1ccc(-c2csc(NC(=O)[C@H]3CCCCN3S(=O)(=O)c3ccc(C)cc3)n2)cc1`, the total cell number is reported as 3.68. `CC1=C(CC(=O)O)c2cc(F)ccc2/C1=C\c1ccc(S(C)(=O)=O)cc1` [Sulindac sulfone] showed a total cell number of 2.76. `NC(N)=NC(=O)c1nc(Cl)c(N2CCCCCC2)nc1N` [5-(N,N-hexamethylene)amiloride] gave a total cell number of -2.84. `O=c1sn(-c2cccc3ccccc23)c(=O)n1Cc1ccccc1` [Tideglusib] gave a total cell number of -3.94. `Nc1c2c(nc3ccccc13)CCCC2` [9-Amino-1,2,3,4-tetrahydroacridine hydrochloride] was tested, and the total cell number was -2.41. With `O=c1cc(-c2ccccc2)oc2cc(O)cc(O)c12` [Chrysin] the total cell number was 0.13. `O=C(CCCCCN1C(=O)c2cccc3cccc(c23)C1=O)NO` [Scriptaid] gave a total cell number of -6.21. Work on `C=C[C@@]1(C)CC(=O)[C@]2(O)[C@@]3(C)[C@@H](O)CCC(C)(C)[C@@H]3[C@H](O)[C@H](OC(C)=O)[C@@]2(C)O1` [Forskolin] yielded a total cell number of 1.14 ± 0.27. Work on `CCN(CC)C(=S)SSC(=S)N(CC)CC` [Disulfiram] yielded a total cell number of -4.26. `Cc1cc(OCCCS(C)(=O)=O)cc(C)c1-c1cccc(COc2ccc3c(c2)OC[C@H]3CC(=O)O)c1` was tested, and the total cell number was -2.44. In the case of `COc1cc2/c(=N/c3ccc(Br)cc3F)nc[nH]c2cc1OCC1CCN(C)CC1` [Vandetanib (ZD6474)], the total cell number is reported as -26.7. With `CC1(C)O[C@@H]2C[C@H]3[C@@H]4CCC5=CC(=O)C=C[C@]5(C)[C@H]4[C@@H](O)C[C@]3(C)[C@]2(C(=O)CO)O1` [Desonide] the total cell number was 8.21. Compound `O=C(O)c1ccc2c(c1)nc(Nc1cccc(Cl)c1)c1ccncc12` [CX-4945 (Silmitasertib)] has a total cell number of -12.6. `c1ccc(-c2ccccn2)nc1` [2,2'-Bipyridyl] was tested, and the total cell number was -2.01. For `COc1ccccc1N1CCN(CCN(C(=O)c2ccc(F)cc2)c2ccccn2)CC1` [p-MPPF dihydrochloride], the total cell number was 1.13. Work on `NCCCCCNCC12CC3CC(CC(C3)C1)C2` [IEM 1754 dihydrobroMide] yielded a total cell number of -2.64. Work on `O=C(CCCCCCC(=O)Nc1ccccc1)NO` [Vorinostat (SAHA, MK0683)] yielded a total cell number of -13.8. Work on `CCc1ccc2c(-c3cccc(Cl)c3)nc(=O)n(CC)c2n1` yielded a total cell number of 0.722. `CC[C@H]1OC(=O)C[C@@H](O)[C@H](C)[C@@H](O[C@@H]2O[C@H](C)[C@@H](O[C@H]3C[C@@](C)(O)[C@@H](O)[C@H](C)O3)[C@H](N(C)C)[C@H]2O)[C@@H](CC=O)C[C@@H](C)C(=O)/C=C/C(C)=C/[C@@H]1CO[C@@H]1O[C@H](C)[C@@H](O)[C@@H](OC)[C@H]1OC` [Tylosin tartrate] gave a total cell number of -2.25. `O=C(/C=C/c1ccc(O)c(O)c1)c1ccc(O)cc1O` [Butein] showed a total cell number of -12.4. For `COC(=O)C1=C(C)NC(C)=C([N+](=O)[O-])C1c1ccccc1C(F)(F)F` (racemic), the total cell number was -1.95. `O=C1NCCc2[nH]c(-c3ccncc3)cc21` was tested, and the total cell number was -11.1 and -11.3. With `Cc1ccc(NC(=O)c2cccc(N(C)C)c2)cc1NC(=O)c1ccc(O)cc1` the total cell number was 4.8. `COc1ccc(S(=O)(=O)Nc2cccnc2Nc2ccc(O)cc2)cc1` showed a total cell number of -7.3. In the case of `C[C@]12C[C@H](O)[C@H]3[C@@H](CCC4=CC(=O)CC[C@@]43C)[C@@H]1CC[C@@H]2C(=O)CO` [Corticosterone], the total cell number is reported as 1.97. Work on `CCNC(=O)CCC/C=C\C[C@@H]1[C@@H](/C=C/[C@@H](O)CCc2ccccc2)[C@H](O)C[C@@H]1O` [Bimatoprost] yielded a total cell number of -0.772. In the case of `COC(=O)C1=C(C)NC(C)=C(C(=O)OC2CCCN(Cc3ccccc3)C2)C1c1cccc([N+](=O)[O-])c1` (stereo not drawn) [Benidipine hydrochloride], the total cell number is reported as -1.13. `COC(=O)C1=C(C)NC(C)=C(C(=O)OC2CCCN(Cc3ccccc3)C2)C1c1cccc([N+](=O)[O-])c1` (stereo not drawn) [Benidipine HCl] gave a total cell number of -1.12. In the case of `CN1CCN(c2cccc(Nc3nc4c(-c5ccc(S(C)(=O)=O)cc5)cccn4n3)c2)CC1`, the total cell number is reported as -11.1. In the case of `Oc1ccc(O)cc1` [Hydroquinone], the total cell number is reported as -6.93. With `COc1cc2nc(N3CCN(C(=O)C4CCCO4)CC3)nc(N)c2cc1OC` (stereo not drawn) [Terazosin HCl] the total cell number was -1.58. For `C[C@H]1C[C@H]2[C@@H]3CCC4=CC(=O)C=C[C@]4(C)[C@@]3(Cl)[C@@H](O)C[C@]2(C)[C@@]1(O)C(=O)CO` [Beclomethasone], the total cell number was 2.7. In the case of `Cc1nc(N=Nc2ccc(C(=O)O)cc2)c(COP(=O)(O)O)c(C=O)c1O`, the total cell number is reported as -1.5. `CN[C@@H](C)C(=O)N[C@H](C(=O)N1CCC[C@H]1C(=O)Nc1snnc1-c1ccccc1)C1CCCCC1` was tested, and the total cell number was -4.08. `CC(C)(O)CC[C@@H](O)[C@](C)(O)[C@H]1CC[C@@]2(O)C3=CC(=O)[C@@H]4C[C@@H](O)[C@@H](O)C[C@]4(C)[C@H]3CC[C@]12C` [20-Hydroxyecdysone] gave a total cell number of -0.544. `CNC(=O)c1nn(C)c2c1C(C)(C)Cc1cnc(Nc3ccc(N4CCN(C)CC4)cc3)nc1-2` gave a total cell number of -10.9. For `CC1CCN=C(N)S1` (racemic) [(±)-AMT hydrochloride], the total cell number was 0.458. `O=C1c2ccccc2C(=O)c2c(NCCc3ccc(O)cc3)ccc(NCCc3ccc(O)cc3)c21` was tested, and the total cell number was -6.59. `FC(F)(F)c1ccc(/C=C/c2nc(COc3ccc(CCCCn4ccnn4)cc3)co2)cc1` [Mubritinib (TAK 165)] showed a total cell number of -7.9. Compound `CN(C)CCCOc1nn(Cc2ccccc2)c2ccccc12` [Benzydamine HCl] has a total cell number of -5.52. `O=C1c2c(O)cc(O)cc2OC(c2ccc(O)c(O)c2)C1O` (stereo not drawn) [Taxifolin (Dihydroquercetin)] was tested, and the total cell number was 0.892. Compound `OC[C@@H](O)[C@@H](O)[C@H](O)[C@@H](O)CO` [Sorbitol] has a total cell number of -0.984. For `Cn1cc(C(=O)OCC2CCN(CCNS(C)(=O)=O)CC2)c2ccccc21`, the total cell number was 0.409. Compound `CC(=O)OCC(=O)[C@@]1(O)CC[C@H]2[C@@H]3CCC4=CC(=O)CC[C@]4(C)[C@H]3C(=O)C[C@@]21C` [Cortisone acetate] has a total cell number of -1.83. Work on `CC(=O)OCC(=O)[C@@]1(O)CC[C@H]2[C@@H]3CCC4=CC(=O)CC[C@]4(C)[C@H]3C(=O)C[C@@]21C` [Cortisone 21-acetate] yielded a total cell number of -1.13. `CNCC[C@H](Oc1ccc(C(F)(F)F)cc1)c1ccccc1` [S-(+)-Fluoxetine hydrochloride] gave a total cell number of -4.94. In the case of `NC(=O)c1ncn([C@@H]2O[C@H](CO)[C@@H](O)[C@H]2O)c1N` [Acadesine], the total cell number is reported as -1.19. `CC1=C(/C=C/C(C)=C/C=C/C(C)=C/C(=O)Nc2ccc(O)cc2)C(C)(C)CCC1` [Retinoic acid p-hydroxyanilide] was tested, and the total cell number was -11.2. `CC(=O)Oc1cc(C(C)C)c(OCCN(C)C)cc1C` [Moxisylyte hydrochloride] gave a total cell number of -0.472. Compound `O=C(O)C(Cc1ccccc1[N+](=O)[O-])=NNc1nc(-c2ccc(Cl)c(Cl)c2)cs1` (mixture of isomers) has a total cell number of 0.206. With `CC1=C(C(=O)OC2CCCCC2)C(c2ccc([N+](=O)[O-])cc2)C2=C(CC(C)(C)CC2=O)N1` (stereo not drawn) the total cell number was -14.4. `C[C@@H]1C(=O)O[C@H]2C[C@@]34[C@H]5C[C@@H](C(C)(C)C)[C@]36[C@@H](OC(=O)[C@@H]6O)O[C@@]4(C(=O)O5)[C@]21O` [Ginkgolide A] was tested, and the total cell number was -2.51. `CC(c1cc2ccccc2s1)N(O)C(N)=O` (stereo not drawn) [Zileuton] showed a total cell number of -0.0169. With `COc1cc(C)c(/C=C/C(C)=C/C=C/C(C)=C/C(=O)O)c(C)c1C` [Acitretin] the total cell number was -3.85. Work on `CC(C)(F)C[C@H](N[C@@H](c1ccc(-c2ccc(S(C)(=O)=O)cc2)cc1)C(F)(F)F)C(=O)NC1(C#N)CC1` [Odanacatib (MK-0822)] yielded a total cell number of -3.2. For `CN(C)CCC=C1c2ccccc2C=Cc2ccccc21` [Cyclobenzaprine hydrochloride], the total cell number was -6.02. `O=C1c2cccc(O)c2C(=O)c2c(O)cc(CO)cc21` [Aloe-emodin] gave a total cell number of 1.92. Compound `CN(C)CCc1c[nH]c2ccc(C[C@H]3COC(=O)N3)cc12` [Zolmitriptan] has a total cell number of -1.08. In the case of `O=C1C(=O)N(Cc2ccc(Cl)c(Cl)c2)c2ccccc21` [Apoptosis Activator 2], the total cell number is reported as -4.28. `O=C(NC1CCOCC1)c1ccc(-c2cc(-c3c[nH]nc3-c3ccccn3)ccn2)cc1` gave a total cell number of -0.803. Work on `NS(=O)(=O)c1cc2c(cc1Cl)NCNS2(=O)=O` [Hydrochlorothiazide] yielded a total cell number of -0.552 ± 0.41. Work on `C[N+]1(C)CCC(=C(c2ccccc2)c2ccccc2)CC1` [Diphemanil Methylsulfate] yielded a total cell number of 6.3. Compound `COc1cc(/C=C/C(=O)O)ccc1O` [Ferulic Acid] has a total cell number of 0.511. `C/C(=N\NC(=S)N1CCC1)c1ccccn1` showed a total cell number of -11.9. For `O=c1[nH]c(=O)n([C@H]2C[C@H](O)[C@@H](CO)O2)cc1F` [Floxuridine], the total cell number was -5.68. In the case of `CS(=O)(=O)Nc1ccc([N+](=O)[O-])cc1Oc1ccccc1` [Nimesulide], the total cell number is reported as -0.902 ± 0.91. `CCn1cc(C(=O)O)c(=O)c2cc(F)c(N3CCNC(C)C3)c(F)c21` (stereo not drawn) [Lomefloxacin HCl] gave a total cell number of -1.57. With `CCn1cc(C(=O)O)c(=O)c2cc(F)c(N3CCNC(C)C3)c(F)c21` (stereo not drawn) [Lomefloxacin hydrochloride] the total cell number was -1.22. Compound `NC(=O)c1cc[n+](CC2=C(C(=O)O)N3C(=O)[C@@H](NC(=O)C(c4ccccc4)S(=O)(=O)[O-])[C@H]3SC2)cc1` (stereo partly drawn) [Cefsulodin sodium salt hydrate] has a total cell number of -0.409.
